Results: PubChem BioAssay AID1476 (National Center for Advancing Translational Sciences (NCATS), 2009)
Among all 200,000 compounds or so, about 4,500 (2.2%) were called active. Inconclusive results, whose numbers are uncertain, are shown with a selection of clear calls. The call rests on the fitted dose curve; in most records, active means well fitted inhibition curve with a large enough effect; inconclusive means small, poorly fitted or top-dose-only effect, or effect the other way; inactive means flat fitted curve, though single readings scatter. Potencies of inconclusive entries are doubtful fits and often do not repeat.

What follows are compounds tested against Cruzipain (Trypanosoma cruzi) (UniProt P25779) (assay: qHTS Assay for Promiscuous and Specific Inhibitors of Cruzain (without detergent)). Settings: purified cruzain, Z-FR-AMC fluorescence, no detergent.
UniProt P25779, sequence (P25779 whole entry, looked up): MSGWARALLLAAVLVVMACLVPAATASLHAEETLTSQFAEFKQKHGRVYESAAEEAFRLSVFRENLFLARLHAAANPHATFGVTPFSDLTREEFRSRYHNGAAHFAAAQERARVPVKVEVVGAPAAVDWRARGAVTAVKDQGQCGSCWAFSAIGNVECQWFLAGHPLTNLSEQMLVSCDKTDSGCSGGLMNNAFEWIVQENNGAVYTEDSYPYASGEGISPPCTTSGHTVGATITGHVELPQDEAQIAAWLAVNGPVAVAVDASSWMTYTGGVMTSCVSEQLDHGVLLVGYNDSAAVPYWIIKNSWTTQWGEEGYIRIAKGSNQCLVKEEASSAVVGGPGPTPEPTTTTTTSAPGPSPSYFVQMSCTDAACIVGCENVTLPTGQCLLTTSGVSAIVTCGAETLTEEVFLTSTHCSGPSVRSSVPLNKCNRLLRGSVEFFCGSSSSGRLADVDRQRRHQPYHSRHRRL
Summary of the method: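 Purified cruzain at 1.5 nM, pre-incubated 15 min with compound at room temperature in 100 mM sodium acetate pH 5.5, 5 mM DTT, 0.00005% Triton X-100. Reaction started with 2 uM Z-FR-AMC; AMC fluorescence increase over 60 s gives rate.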
Further: nearly all actives have a fitted effect of over 40% in size.
Potency means the concentration at half of the fitted maximal effect; tags describe the fitted curve by direction and shape.
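Wherever max response, negative = inhibition is given: plate controls were enzyme without inhibitor for no effect and buffer without enzyme for full effect.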

How did the max response, negative = inhibition turn out when Cc1ccc(CCNC(=O)c2cnc3c(C)cccn3c2=O)cc1 was run?
The max response, negative = inhibition was inactive: -1.22%.

How did the max response, negative = inhibition turn out when COc1ccc(-c2nc3cnc(N4CCNCC4)nc3n(C)c2=O)cc1 was run?
The max response, negative = inhibition was inactive: 0.0708%.

CC1(C)OCC(CSC2=C(SCC3COC(C)(C)O3)C(=O)c3ncccc3C2=O)O1 (centres undefined) was tested. Which Potency did it give?
Its Potency is inconclusive: 39.8 µM [inhibitor, single point].

With COc1ccc(OC)c(NC(=O)C2CCCN(S(=O)(=O)c3ccc4[nH]c(=O)ccc4c3)C2)c1 (centres undefined) as the compound, how does the max response, negative = inhibition read?
The max response, negative = inhibition was inactive: 28.7%.

With Cc1ccc(Cn2c(CN3CCC(C(=O)NCc4cccnc4)CC3)cc3ccccc32)cc1 as the compound, how does the max response, negative = inhibition read?
Its max response, negative = inhibition is inactive: 7.27%.

How did the max response, negative = inhibition turn out when COc1ccc([C@@H](Nc2ccccn2)c2cc(C(C)(C)C)cc(C(C)(C)C)c2O)cc1 was run?
Its max response, negative = inhibition is inactive: 2.47%.

With COc1ccc(-c2noc(CN(C(=O)c3ccccc3Cl)C(C)C)n2)cc1 as the compound, how does the max response, negative = inhibition read?
Its max response, negative = inhibition is inactive: 9.08%.

With Cc1cccc(NC(=O)CSc2nnc(CNC(=O)c3cccc(C)c3)n2-c2ccccc2)c1 as the compound, how does the Potency read?
The Potency was inconclusive: 39.8 µM [activator, single point].

With COC(=O)N1CCC2(CC1)CN(c1cccc(-c3ccccc3)c1)C2 as the compound, how does the Potency read?
Its Potency is inconclusive: 39.8 µM [activator, single point].

Which Potency does the source give for O=C(NC1CCCCC1)c1ccc2c(c1)N(Cc1ccccc1F)C(=O)c1ccccc1S2 here?
The Potency was inconclusive: 39.8 µM [inhibitor, single point].

How did the Potency turn out when c1cncc(CNc2ncnc3ccc(-c4ccoc4)cc23)c1 was run?
The Potency was inconclusive: 39.8 µM [inhibitor, single point].

How did the max response, negative = inhibition turn out when CC(=O)N1CCc2cc(Br)cc(S(=O)(=O)NCCCN3CCC(C)CC3)c21 was run?
The max response, negative = inhibition was inactive: -0.109%.

With CC(C)(C)CC(C)(C)c1ccc(O)c(Cc2ccc(Cl)cc2Cl)c1 as the compound, how does the Potency read?
Its Potency is inconclusive: 39.8 µM [inhibitor, single point].

For CC(=O)Nc1ccc(NC(=O)C2CCCN(c3nnc(-n4cccc4)s3)C2)cc1 (centres undefined), which Potency is on record?
The Potency was inconclusive: 25.1 µM [inhibitor, single point].

CC(C)Sc1nnc([C@@H](N)Cc2c[nH]c3ccccc23)o1 was tested. Which max response, negative = inhibition did it give?
The max response, negative = inhibition was inactive: 6.88%.

For Cc1ccc(/C=C2\SC(=S)N(CCC(=O)NNS(=O)(=O)c3ccc(C)cc3)C2=O)cc1, which Potency is on record?
Its Potency is inconclusive: 6.31 µM [inhibitor, single point].

COc1ccccc1CNc1nc(-c2ccco2)nn1C(=O)c1cc(OC)c(OC)c(OC)c1 was tested. Which Potency did it give?
Its Potency is inconclusive: 39.8 µM [activator, single point].

With COc1ccc(CCN2C(=O)C3C4CC(C5C(C(=O)N/N=C\c6ccc(Cl)cc6)=NOC45)C3C2=O)cc1OC (centres undefined) as the compound, how does the Potency read?
Its Potency is inconclusive: 31.6 µM [activator, single point].

For COc1ccccc1N1CCN(C(=O)c2cnn(-c3cccc(Cl)c3)c2C2CCN(C(=O)OC(C)(C)C)CC2)CC1, which Potency is on record?
Its Potency is inconclusive: 7.94 µM [activator, full curve].

With O=C(Cc1cccs1)NC1C(=O)N2C(C(=O)[O-])=C(C[n+]3ccccc3)CSC12 (centres undefined) as the compound, how does the Potency read?
The Potency was inconclusive: 39.8 µM [activator, single point].

With COc1cc(-c2nc(SCC(=O)Nc3ccc(C)cc3)c(-c3ccc(F)cc3)[nH]2)cc(OC)c1OC as the compound, how does the Potency read?
Its Potency is inconclusive: 6.31 µM [activator, single point].

How did the Potency turn out when COc1cc(/C=C(\C#N)c2nc3ccccc3[nH]2)ccc1OCc1ccc(F)cc1 was run?
Its Potency is inconclusive: 31.6 µM [inhibitor, single point].

Which Potency does the source give for COc1cc(N2CCCC2)c(OC)cc1/C=C(/C#N)c1ccc(Br)cc1 here?
The Potency was inconclusive: 31.6 µM [inhibitor, single point].

Which max response, negative = inhibition does the source give for O=C(COc1ccccc1)N(Cc1cccnc1)c1nc2c(F)cccc2s1 here?
The max response, negative = inhibition was inactive: -12.7%.

Which max response, negative = inhibition does the source give for N#Cc1c(N)sc(=S)c2c1CCCCC2 here?
The max response, negative = inhibition was inactive: -14.6%.

Which Potency does the source give for CC(C)(C)C(=O)[C@@H]1[C@@H]2C(=O)N(C3CCCCC3)C(=O)[C@@H]2[C@H]2c3ccccc3C=CN12 here?
The Potency was inconclusive: 39.8 µM [inhibitor, single point].

With CCc1nn2c(=O)cc(COC(=O)c3ccc(NC(=O)CCc4ccccc4)cc3)nc2s1 as the compound, how does the max response, negative = inhibition read?
Its max response, negative = inhibition is inactive: -13%.

Which Potency does the source give for Cc1cc(=O)oc2c(CN3CCCCC3)c(O)c(Cl)cc12 here?
The Potency was inconclusive: 39.8 µM [inhibitor, single point].

How did the Potency turn out when CC(=O)N1CCc2c(sc3nc(SCC(C)C)n(-c4ccc(C)c(Cl)c4)c(=O)c23)C1 was run?
The Potency was inconclusive: 20 µM [activator, partial curve].

Which Potency does the source give for CC(C)(C)c1ccc(/C=N/NC(=O)Cc2c[nH]c3ccccc23)cc1 here?
The Potency was inconclusive: 25.1 µM [activator, single point].

With N#Cc1c(NC(=O)Cn2nc(C(F)(F)F)c3c2CCCC3)sc2c1CCC2 as the compound, how does the Potency read?
The Potency was active: 7.94 µM.

CC1CCN(c2nn3c(=O)c(C(=O)NCCc4ccccc4)cnc3s2)CC1 was tested. Which max response, negative = inhibition did it give?
The max response, negative = inhibition was inactive: 10.9%.

With Cc1cc(=O)n(C(C)C(=O)N2CCCc3ccccc32)c2c1c(C)nn2-c1ccccc1 (centres undefined) as the compound, how does the Potency read?
Its Potency is inconclusive: 7.94 µM [activator, single point].

Which max response, negative = inhibition does the source give for O=C(CN1C(=O)COc2ccc(S(=O)(=O)N3CCCCCC3)cc21)Nc1cccc(Cl)c1 here?
Its max response, negative = inhibition is inactive: -6.28%.

How did the Potency turn out when COc1ccc(S(=O)(=O)N2CCC(NC(=O)OCc3c(Cl)cccc3Cl)CC2)cc1 was run?
Its Potency is inconclusive: 39.8 µM [inhibitor, single point].

For CC1(C)CC(=O)C2=C(C1)N(CCN1CCOCC1)C1=C(C(=O)CC(C)(C)C1)C2c1cccc(Cl)c1, which Potency is on record?
The Potency was inconclusive: 31.6 µM [activator, partial curve].

For CC1Cc2cc(-c3csc(NC(=O)Cc4cccs4)n3)ccc2N1S(C)(=O)=O (centres undefined), which Potency is on record?
Its Potency is inconclusive: 25.1 µM [inhibitor, single point].

Cc1ccc(CCNC(=O)C2CCCN(S(=O)(=O)c3c(C)noc3/C=C/N(C)C)C2)cc1 (centres undefined) was tested. Which Potency did it give?
The Potency was inconclusive: 31.6 µM [activator, single point].

With Cc1ccc(S(=O)(=O)N2CCN(c3nc(C(C)C)c4c(c3C#N)CC(C)(C)OC4)CC2)cc1 as the compound, how does the Potency read?
The Potency was inconclusive: 31.6 µM [inhibitor, single point].

For O=C(NNc1cccc(Cl)n1)Nc1cccc(Cl)c1, which Potency is on record?
Its Potency is inconclusive: 39.8 µM [inhibitor, single point].

With CC(=O)C1CCC2C3CC(C)C4=CC(=O)CC[C@@]4(C)C3C(O)C[C@@]12C (some centres undefined) as the compound, how does the Potency read?
The Potency was inconclusive: 39.8 µM [activator, single point].

For Cc1cccc(N2CCN(C(=O)C3CCN(C(=O)c4cc5sccc5n4C)CC3)CC2)c1C, which Potency is on record?
The Potency was inconclusive: 25.1 µM [activator, single point].

How did the Potency turn out when COc1cc(/C=C/C(=O)c2c(O)ccc3c(C)cc(=O)oc23)ccc1O was run?
The Potency was inconclusive: 39.8 µM [activator, single point].

For Cc1ccc(-c2[nH]c3c(c2-c2c(-n4cccc4)n(C)c(=O)[nH]c2=O)c(=O)[nH]c(=O)n3C)cc1, which max response, negative = inhibition is on record?
Its max response, negative = inhibition is inactive: 8.4%.

How did the max response, negative = inhibition turn out when CC(=O)NC(Cc1ccccc1)C(=O)N1CCN(C(=O)c2cccs2)CC1 (centres undefined) was run?
The max response, negative = inhibition was inactive: 5.15%.

Which Potency does the source give for Cn1cnnc1SCC(=O)Nc1ccc2nc(SCc3ccccc3)sc2c1 here?
The Potency was inconclusive: 31.6 µM [activator, single point].

COc1ccccc1CNC(=O)C(C)n1ccc2cc(S(=O)(=O)N3CCCC3)ccc21 (centres undefined) was tested. Which max response, negative = inhibition did it give?
The max response, negative = inhibition was inactive: 1.55%.

For CCOC(=O)C1CCN(C(c2cccc(F)c2)c2sc3nc(C)nn3c2O)CC1 (centres undefined), which Potency is on record?
The Potency was inconclusive: 31.6 µM [activator, single point].

COc1ccc(N2CCN(C(CNC(=O)C(=O)NCc3cccnc3)c3cccnc3)CC2)cc1 (centres undefined) was tested. Which Potency did it give?
The Potency was inconclusive: 31.6 µM [activator, partial curve].

For CC1=CCC2C(=O)N(C(C)c3ccccc3)C(=O)C2C1 (centres undefined), which Potency is on record?
Its Potency is inconclusive: 39.8 µM [inhibitor, single point].

For Nc1ccc(O)c(-c2nc3ccccc3s2)c1, which Potency is on record?
The Potency was active: 3.16 µM.

How did the max response, negative = inhibition turn out when COc1cc(OC)c(OC)cc1CN1CCc2nc(Nc3ccc4c(c3)OCCO4)ncc2C1 was run?
The max response, negative = inhibition was inactive: -2.15%.

With COc1ccc(CNC(=O)C(=O)Nc2c3c(nn2-c2ccccc2)CSC3)cc1 as the compound, how does the Potency read?
The Potency was active: 25.1 µM.

With CCCCC[C@H](O)/C=C/[C@@H]1[C@@H](C/C=C\CCCC(=O)OC)[C@@H](O)C[C@H]1O as the compound, how does the Potency read?
Its Potency is inconclusive: 39.8 µM [activator, single point].

For COc1ccc(-n2c(=O)c3ccccc3n(CC(=O)Nc3cc(C)on3)c2=O)cc1OC, which max response, negative = inhibition is on record?
Its max response, negative = inhibition is inactive: -9.8%.

With Cc1ccc(-c2cc(C(=O)NCc3cnn(C)c3C)c3ccccc3n2)cc1C as the compound, how does the Potency read?
The Potency was inconclusive: 25.1 µM [activator, single point].

With O=C1C2C(c3ccccc3)C=CC(c3ccccc3)C2C(=O)N1C1CCCCC1 (centres undefined) as the compound, how does the Potency read?
The Potency was inconclusive: 0.0251 µM [inhibitor, full curve, poor fit].

How did the Potency turn out when COC(=O)c1cc(Br)c(=O)n(-c2cc(C)on2)c1 was run?
Its Potency is inconclusive: 25.1 µM [inhibitor, single point].

For NC(=S)N/N=C/c1coc2cc(Cl)ccc2c1=O, which Potency is on record?
The Potency was inconclusive: 25.1 µM [inhibitor, single point].

For COC(=O)c1c(-c2cccs2)csc1NC(=O)c1ccc(Br)cc1, which max response, negative = inhibition is on record?
Its max response, negative = inhibition is inactive: -20.2%.

With CCOc1ccc(-c2cc(CCCC(=O)NCCc3ccc(Cl)cc3)no2)cc1 as the compound, how does the max response, negative = inhibition read?
Its max response, negative = inhibition is inactive: 1.79%.

CCCC[C@@H](C=O)NC(=O)[C@H](CC(C)C)NC(=O)[C@H](CC(C)C)NC(C)=O was tested. Which Potency did it give?
The Potency was active: 0.0032 µM.

O=C(OCC(=O)N1CCN(C(=O)c2ccco2)CC1)c1sc2cc(F)ccc2c1Cl was tested. Which Potency did it give?
The Potency was inconclusive: 39.8 µM [activator, single point].

For CCOC(=O)c1ccccc1NC(=O)N1CCN(Cc2cc(=O)n3nc(-c4ccccc4)sc3n2)CC1, which max response, negative = inhibition is on record?
The max response, negative = inhibition was inactive: 8.63%.
